{
  "source": "paper PMC12136788",
  "binders": {"B1": {"name": "68156407_68156527_705_CDS_ENSG00000072736_ENST00000346183|human|control|control (ssRNA)", "RNA": "GGGAGUUCUACAGUCCGACGAUCGGAUCUAGGAGAGUGGCAAGGAGAUUGCCUGGGUGAUAAUGAGUGUCCAAGUCCAUACUGUUGAUGCCAAGUUUCUUCUCCAGGGCAGCCCCCUGGAGAGCCACCAGGAGAAGUCAGAGGCAACAGAGGAUUGAGCAUCA"}, "B2": {"name": "chr11:18503389:18503390:-_ENSG00000074319_ENST00000251968|hu_hu|motif|central (ssRNA)", "RNA": "GGGAGUUCUACAGUCCGACGAUCAUUUUCCAUUUUUUCCAGAGCAGAACUGAGUUCUUCAUCCUUCUUUUUCAAAAGUUCGGUGUUUUUAUCAACCUCGGCUACUUCUUGAUCUAAACGGGUAACCAUCUCUUCCAGUUUCUGCAACAGAGGAUUGAGCAUCA"}, "B3": {"name": "110832895_110833015_3381_3pUTR_ENSG00000164211_ENST00000296632|human|control|control (ssRNA)", "RNA": "GGGAGUUCUACAGUCCGACGAUCCAACUGCCAUAUCAAAAGUUACUUAUCUUUGAAGGAAAAUAUUUGCUGGCAAUAAUUUUAUCUCAUUGACAACUGAUUUAUAUCUAAAGUUUAGAUGUCCUAUUUAUCAAGCAAUGAAGGCAACAGAGGAUUGAGCAUCA"}, "B4": {"name": "chr5:24309113:24309114:-_ENSMUSG00000028945_ENSMUST00000030787|mus_mus|motif|central (ssRNA)", "RNA": "GGGAGUUCUACAGUCCGACGAUCUUUUAUUUACAAGUAUACAUUUAACACAAUGAAAUAAACACUGAUAUAUUGAAGCCGGGUUAAUAGUAGUGUAACAUGUGUAUCAUUUUGAUGAUUACAUUAUUUUAAACAACAAACUACCAACAGAGGAUUGAGCAUCA"}, "B5": {"name": "chr2:168013125:168013126:-_ENSMUSG00000051149_ENSMUST00000088001|mus_mus|FALSE|FALSE (ssRNA)", "RNA": "GGGAGUUCUACAGUCCGACGAUCCUCCCAUGUAGUGUUUUUCAAAUAAAAGUCAUUAGGUUCAAACUGUUUAAAAUCUUCUAUAUGUUCUUUACAGUAUUCCAACCCAAUGUCACUAAGUAUUUUUUUCACAGUUUUCCGGGCCAACAGAGGAUUGAGCAUCA"}, "B6": {"name": "chr1:224585847:224585848:-_ENSG00000162923_ENST00000295024|hu_mus|motif|central (ssRNA)", "RNA": "GGGAGUUCUACAGUCCGACGAUCUCCAAAACACGAGUGGAUUGUAUAAAACCCUUGGGUAACACCUUGAUAUUUCCUUACGGAAACUCUGUCUUGCAAGUCCCAUAAAUGAACUCCCUGAGUUGCUACAUUUAACAAAGCUAACAACAGAGGAUUGAGCAUCA"}, "B7": {"name": "51937858_51937978_3740_3pUTR_ENSMUSG00000020349_ENSMUST00000020608|mouse|control|control (ssRNA)", "RNA": "GGGAGUUCUACAGUCCGACGAUCUUAUUUUUUGUUUGAGUGGUUUGCCUGCAGGCAUGUACACCACAUGUGUGUCUGAUGCCGUGGAGACCAGAAGAGAGUAUCAGGGCCUCUGGAGUCGAAGUUAUAGGCAGCUGGGGGCUACAACAGAGGAUUGAGCAUCA"}, "B8": {"name": "111883933_111885604_1727_CDS_ENSG00000148700_ENST00000277900|human|control|control (ssRNA)", "RNA": "GGGAGUUCUACAGUCCGACGAUCUGAGUCUUCUGCUUUCAUCCACGUGAUUUUGGUUCGGGGACUGGUUUCUCCGUUCCGAGACUCCUCAGGCACAUUCACUUUCAUGUAAGUAUUUGGUGAGUUCAGCCAUCUUGUUUUUUCCAACAGAGGAUUGAGCAUCA"}, "B9": {"name": "chr4:40912178:40912179:+_ENSMUSG00000028419_ENSMUST00000030128|mus_mus|motif|central (ssRNA)", "RNA": "GGGAGUUCUACAGUCCGACGAUCACAGUUCAUUCCAACAGUAGAUCGUGUAAUGACUUGCUCACAUGACACAACAAAAUCGGUCAAAAGAGGCCAUGACUUAAACCCAUCUACAAUACCACAACAGACAAGGGUUCUGAAGCACAACAGAGGAUUGAGCAUCA"}, "B10": {"name": "chr7:135612270:135612271:-_ENSG00000105887_ENST00000393085|hu_mus|hu_hu_hu_mus_False|18_98 (ssRNA)", "RNA": "GGGAGUUCUACAGUCCGACGAUCGUUUUUUUCUGAGUAAGUAUUACGUACUUCAGUGGAAAACAAAACUUAACCUUUUAUUAAUGCGUGUUGUACCAAAAGCAGACAUUUUAGCUUGCUUCCUUUAAAAAUAUUAACAUUAAGCAACAGAGGAUUGAGCAUCA"}, "B11": {"name": "chr10:116622694:116622695:+_ENSG00000151553_ENST00000369248|hu_hu|FALSE|FALSE (ssRNA)", "RNA": "GGGAGUUCUACAGUCCGACGAUCAAUAAACCAGAAAAGCUAACACAACAAAAUGAGCAGAUAGGUGUAAAACAAGCCUCUAUGCACAUGCCACACAAUGCGUAUAUGCAAACAUGCUACAUAAAAUAACUUCCUAGAGGGGGUCAACAGAGGAUUGAGCAUCA"}, "B12": {"name": "29370372_29377329_3663_CDS_ENSMUSG00000032740_ENSMUST00000040182|mouse|control|control (ssRNA)", "RNA": "GGGAGUUCUACAGUCCGACGAUCUUGUCUCUGUUUGAGAGCUUCAUAAUUUUUUUUCACUGUUUUAAGUUCGUGGCGCAAUUGCUGAUUGUAAUUUGUAGAUUCUUCUAACCGAGCUUCUAAAGCAGCAAUUUUUUCUUCUUUCAACAGAGGAUUGAGCAUCA"}, "B13": {"name": "chr1:109605286:109605287:-_ENSG00000197780_ENST00000461096|hu_mus|hu_hu_hu_mus_True|18_68 (ssRNA)", "RNA": "GGGAGUUCUACAGUCCGACGAUCAAGUUUCAGAGUAACAUUCAGUAACCUCUUUAAAUGCAAUUAUCCUUACUUUAAGCUAAGCAGAAUAAUAAUUUAAUACCGUAAGUGAACUACCACAAAACCUUGAACCGCGAAAAUGGUCAACAGAGGAUUGAGCAUCA"}, "B14": {"name": "47058699_47059202_7561_CDS_ENSG00000181555_ENST00000409792|human|control|control (ssRNA)", "RNA": "GGGAGUUCUACAGUCCGACGAUCAUUCUUACAGUACUUCAGCUCCUUAUUCAUAACACCGUGAGUCAGCUUGCGAGCCAGAUGUUUAAAGUCUUCAGUUGUGGUAAUUCUUCCCACUUUGCAGUCAGGUUUCCGGUAAGGGUUCAACAGAGGAUUGAGCAUCA"}, "B15": {"name": "chr5:37680062:37680063:+_ENSMUSG00000029121_ENSMUST00000031004|mus_mus|FALSE|FALSE (ssRNA)", "RNA": "GGGAGUUCUACAGUCCGACGAUCUUUGGGUGUAGCUGGCACCUCGUACACAGGCCCAUCGUACAUGCCCCUGGAAACACUAUGCAACCCGAAAACCUUGCUUCUGAUCCUGACACGCUGGUAGAGAUGCUCUGGGAAUGGCUUCAACAGAGGAUUGAGCAUCA"}, "B16": {"name": "chr4:17845017:17845018:+_ENSG00000109805_ENST00000514176|hu_mus|hu_hu_hu_mus_False|58_68 (ssRNA)", "RNA": "GGGAGUUCUACAGUCCGACGAUCGCUCUCUUAACUUGUAUCUUCAUUAAGGAACUCUGCAAGGUUAGUUUACUUUUUUCUAGUGCUAGCUGUUUUGGCUCGUCUGGGUAAUCUCAUCUUCAUUUCUGAUGGUGGUUCAUGAUCCAACAGAGGAUUGAGCAUCA"}, "B17": {"name": "chr7:65705844:65705845:+_ENSG00000169902_ENST00000304842|hu_mus|FALSE|FALSE (ssRNA)", "RNA": "GGGAGUUCUACAGUCCGACGAUCAAACGGAUCUUUGUUACAUAAAUAAGGUGCCGGCUCCCCAUGUUUAACAAUGACCUCCAGAAGGAAGGCUUGCAUGGCAGAAUCUAGCACUUCAUCUGUGACACCCGCCUCAUCCAAGCGCAACAGAGGAUUGAGCAUCA"}, "B18": {"name": "87861237_87861357_78_5pUTR_ENSMUSG00000018379_ENSMUST00000079866|mouse|control|control (ssRNA)", "RNA": "GGGAGUUCUACAGUCCGACGAUCACACCACCUCCCGACAUGGCGGCGGCGGCGACGACGAAAAGCGCGGACUCGGGGGGGGGGAAGGAAAAAAAAAAAAAGAGGCCUUCCUACCAAGCCUAGCGUACGGCAGAGCGAGCCCUCCAACAGAGGAUUGAGCAUCA"}, "B19": {"name": "chr3:9412954:9412955:+_ENSG00000134077_ENST00000452837|hu_mus|FALSE|FALSE (ssRNA)", "RNA": "GGGAGUUCUACAGUCCGACGAUCGGUUGAUAUCUCUUCUUUGAUGGCUGGAUUUUCAUAAUAGUCCAAGAUAUGUGAAUCUGAAGUGCUGCUGGCAUGCUUUUUCUUACCAUCUUUCUCAUCUGCUUUGUCUCCUUGUCCACACAACAGAGGAUUGAGCAUCA"}, "B20": {"name": "chr15:5129413:5129414:+_ENSMUSG00000050697_ENSMUST00000051186|mus_mus|FALSE|FALSE (ssRNA)", "RNA": "GGGAGUUCUACAGUCCGACGAUCAAAAUAGCAUGUUAAGAGGAAUAUGGAAAUAGUUCACAAUGUAACCAAAAAUGGAAACUAGUAGCUAUUUUGGAAGUUAAGGAGCCCAGAAAACAGCAUUAUCUAAUAAGGUCUAUGAGGCAACAGAGGAUUGAGCAUCA"}, "B21": {"name": "chr11:77340908:77340909:-_ENSG00000074201_ENST00000525064|hu_hu|motif|central (ssRNA)", "RNA": "GGGAGUUCUACAGUCCGACGAUCACUUCGGUCCCUGGAUAAUGCAUGUAAACUAAUGGUGGGGUAUUCCAGUGAGAAUCCGGAUCCAGAGCCAUCUAACCAAGACAGGCGGCUCUCAGCGAUGUAAAGGGUACCAGUGCCGAGCAACAGAGGAUUGAGCAUCA"}, "B22": {"name": "chr2:5814250:5814251:-_ENSMUSG00000025816_ENSMUST00000102981|mus_hu|mus_mus_mus_hu_True|28_108 (ssRNA)", "RNA": "GGGAGUUCUACAGUCCGACGAUCUUCCUUUCAGGCUUCUGAAUUUCUGGUAGAACUGCACAGAAUGGUUUGAUAACUUCUAAAAAUUUGAUGCCCAUGGCUGCUGCUCAGCACACCCAGGGGGAAACCGCGGCCUCGGCGCUGCAACAGAGGAUUGAGCAUCA"}},
  "note": "Some of the results follow.",
  "data": [
    {"target": "T1, UNK ZnF1-3 (human, UniProt Q9C0B0 31-174)", "T1 sequence": "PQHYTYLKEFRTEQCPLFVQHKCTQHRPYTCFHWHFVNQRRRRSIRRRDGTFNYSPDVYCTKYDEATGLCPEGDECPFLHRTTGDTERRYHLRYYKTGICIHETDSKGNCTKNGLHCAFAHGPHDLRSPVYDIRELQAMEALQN", "experiment": "nsRBNS (natural sequence RNA bind-n-seq); RBNS binding buffer (assumed for nsRBNS): 25 mM Tris pH 7.5, 150 mM KCl, 3 mM MgCl2, 0.01% Triton X-100, 500 ug/ml BSA, 20 U/ml SUPERase-In, 4 C; UNK is unkempt and MSI1 is Musashi-1; names of the RNAs are library labels; protein concentration not given here; high values mean tight binding", "units": {"binding signal": "enrichment R"}, "values": [
      {"binder": "B1", "binding signal": 0.69},
      {"binder": "B2", "binding signal": 0.412},
      {"binder": "B3", "binding signal": 1.03},
      {"binder": "B4", "binding signal": 0.68},
      {"binder": "B5", "binding signal": 0.621},
      {"binder": "B6", "binding signal": 0.931},
      {"binder": "B7", "binding signal": 1.5},
      {"binder": "B8", "binding signal": 0.35},
      {"binder": "B9", "binding signal": 1.4},
      {"binder": "B10", "binding signal": 0.489},
      {"binder": "B11", "binding signal": 1.1},
      {"binder": "B12", "binding signal": 0.378},
      {"binder": "B13", "binding signal": 0.721},
      {"binder": "B14", "binding signal": 0.759},
      {"binder": "B15", "binding signal": 0.957},
      {"binder": "B16", "binding signal": 0.336},
      {"binder": "B17", "binding signal": 0.346},
      {"binder": "B18", "binding signal": 1.87},
      {"binder": "B19", "binding signal": 0.377},
      {"binder": "B20", "binding signal": 1.67},
      {"binder": "B21", "binding signal": 1.53},
      {"binder": "B22", "binding signal": 1.04}
    ]}
  ]
}
